Experimental data taken from PubChem BioAssay AID2147 (National Center for Advancing Translational Sciences (NCATS), 2009).
“And” between values parts separate entries of the source, which are not always exact repeats. Equal values may be shown once. Out of some 230,000 compounds screened, about 3,600 (1.6%) were called active. Inconclusive results, whose numbers are uncertain, are shown with a selection of clear calls. The call rests on the fitted dose curve; in most records, active means well fitted inhibition curve with a large enough effect (not every such curve was filed as active); inconclusive means small, poorly fitted or top-dose-only effect, or another doubt; inactive means no such curve, though single readings can be large or run the other way. Where the call is inconclusive, the potency comes from a doubtful curve fit.

target: Lysine-specific demethylase 4E (Homo sapiens) (UniProt B2RXH2); assay: qHTS Assay for Inhibitors of Human Jumonji Domain Containing 2E (JMJD2E); settings: JMJD2E catalytic domain, FDH-coupled NADH fluorescence (FDH is formaldehyde dehydrogenase); series mostly up to 57.1 µM; activity change, negative = inhibition: at the top concentration
Sequence of UniProt B2RXH2 (B2RXH2 whole entry, looked up, the tested form may be a part): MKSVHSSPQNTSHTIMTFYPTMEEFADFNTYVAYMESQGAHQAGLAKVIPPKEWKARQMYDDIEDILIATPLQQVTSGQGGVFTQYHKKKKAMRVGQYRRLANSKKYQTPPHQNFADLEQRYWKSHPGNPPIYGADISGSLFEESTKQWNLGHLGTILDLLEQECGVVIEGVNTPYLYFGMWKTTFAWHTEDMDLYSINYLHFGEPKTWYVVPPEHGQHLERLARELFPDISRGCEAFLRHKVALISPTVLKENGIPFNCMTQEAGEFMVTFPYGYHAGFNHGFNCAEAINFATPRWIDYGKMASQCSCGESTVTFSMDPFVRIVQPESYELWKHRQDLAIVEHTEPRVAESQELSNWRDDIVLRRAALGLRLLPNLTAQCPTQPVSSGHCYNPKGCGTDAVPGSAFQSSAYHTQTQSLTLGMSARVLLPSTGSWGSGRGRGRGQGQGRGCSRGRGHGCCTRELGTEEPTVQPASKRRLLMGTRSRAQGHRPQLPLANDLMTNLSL
Further: nearly all actives have a fitted effect of over 50% in size.
Potency means the concentration at half of the fitted maximal effect; tags describe the fitted curve by direction and shape.
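Wherever activity change, negative = inhibition is given: 0% = wells with enzyme and -100% = buffer wells without enzyme.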

Row | SMILES | Potency | activity change, negative = inhibition
1 | O=c1[nH]c(=O)n(CCC2=CCCCC2)c(O)c1/C=N/Nc1cccc2ccccc12 | inconclusive: 31.6 µM [inhibitor, partial curve] | –
2 | CCN1CCN(C(=O)Cc2ccccc2OC)CC1 | – | inactive: -6.13%
3 | O=C(Nc1ccncc1)c1cccn(Cc2ccccc2)c1=O | inconclusive: 35.5 µM [inhibitor, partial curve] | –
4 | CCCOc1ccc2[nH]cc(C3=CCNCC3)c2n1 | inconclusive: 25.1 µM [inhibitor, partial curve] | –
5 | COc1ccc(Cc2nccc3cc(OC)c(OC)cc23)cc1OC | inconclusive: 31.6 µM [inhibitor, single point] | –
6 | O=C(N/N=C/C1C(=O)NC(=S)N(c2ccccc2)C1=O)c1cc(Br)c(O)c(Br)c1 (stereo not given) | active: 22.4 µM | –
7 | COc1ccc(N2C(=O)NC(=O)/C(=C/c3ccc(N4CCOCC4)cc3)C2=O)cc1 | inconclusive: 28.2 µM [inhibitor, single point] | –
8 | CNCCc1c[nH]c2ccc(O)cc12 | active: 22.4 µM | –
9 | CCOP(=S)(NN(Cc1ccccc1)C(=O)c1ccccc1)OCC | – | inactive: 6.84%
10 | C[C@@H]1NCCc2cc(O)c(O)cc21 | active: 11.2 µM | –
11 | O=c1c2ccccc2nc(N2CCCC2)n1-c1ccc(Cl)cc1 | inconclusive: 28.2 µM [inhibitor, partial curve] | –
12 | CC(COc1ccccc1)N(CCCl)Cc1ccccc1 (stereo not given) | inconclusive: 28.2 µM [inhibitor, single point] | –
13 | Oc1ccc(/C=N/NP(=S)(c2ccccc2)c2ccccc2)cc1O | inconclusive: 31.6 µM [inhibitor, single point] | –
14 | CCN(CC)C(=O)c1ccc(NC(=O)c2ccc(-c3nn(C)c(=O)c4ccccc34)cc2)cc1 | – | inactive: 7.95%
15 | COc1ccc(-n2c(SC)nc3ccccc3c2=O)cc1 | – | inactive: 2.28%
16 | N#CC1=C(N)Oc2c(c(=O)oc3ccccc23)C1c1ccc([N+](=O)[O-])o1 (stereo not given) | inconclusive: 31.6 µM [inhibitor, partial curve] | –
17 | COc1cc(CN2CC3CC(C2)c2cccc(=O)n2C3)cc(OC)c1OC (stereo not given) | – | inactive: 10.4%
18 | COc1cc(C(=O)N/N=C/c2ccc(OC(=O)N3CCOCC3)cc2)cc(OC)c1OC | active: 28.2 µM | –
19 | N#Cc1cc2c(nc1SCC(=O)Nc1cc(Cl)ccc1Cl)C1CCN2CC1 | inconclusive: 25.1 µM [inhibitor, partial curve] | –
20 | C#CCN1C(C)=C(C(=O)CCO)[C@@H](c2cccc(-n3oo3)c2)C(C(=O)OC)=C1C | – | inactive: -3.43%
21 | COc1ccc(/C=C/C(=O)N2CC3C[C@@H](C2)Cn2c3cccc2=O)cc1OC | inconclusive: 39.8 µM [inhibitor, single point] | –
22 | CC(=O)NC(Cc1ccc(N(CCCl)CCCl)cc1)C(=O)NC(C(=O)O)C(C)C (stereo not given) | inconclusive: 15.8 µM [inhibitor, partial curve] | –
23 | CC(=O)C1=C(C)OC(N)=C(C(=O)OC(C)C)C12C(=O)Nc1ccccc12 (stereo not given) | – | inactive: -7.25%
24 | C=CCn1c(O)c(C(C)=Nc2ccc(N(C)C)cc2)c(=O)[nH]c1=O | inconclusive: 12.6 µM [inhibitor, partial curve] | –

Row | SMILES | Potency | activity change, negative = inhibition
25 | CCOc1ccc(N2C(=O)NC(=O)/C(=C\c3ccc(N4CCCCC4)o3)C2=O)cc1 | – | inactive: 0.0138%
26 | CC(C(=O)c1c[nH]c2ccccc12)N1CCc2ccccc2C1 (stereo not given) | inconclusive: 35.5 µM [inhibitor, single point] | –
27 | COCCN1Cc2cc(=O)n3c([nH]c4ccccc43)c2C1=N | inconclusive: 14.1 µM [inhibitor, partial curve] | –
28 | CCc1ccc(N2C(=O)NC(=O)C(CCc3ccncc3)(CCc3ccncc3)C2=O)cc1 | – | inactive: 2.1%
29 | NC(=O)c1cn(C2OC(CO)C(O)C2O)c2ncnc(N)c12 (stereo not given) | – | inactive: 1.89%
30 | Cc1oc(-c2cccs2)nc1CSCC(=O)N1CCC2(CC1)OCCO2 | inconclusive: 28.2 µM [inhibitor, partial curve] | –
31 | O=c1c2ccccc2nc(CNCC2CCCO2)n1-c1ccc(F)cc1 (stereo not given) | – | inactive: 4.46%
32 | CCCN1CCO[C@@H]2c3cc(O)ccc3OC[C@@H]21 | inconclusive: 39.8 µM [inhibitor, partial curve] | –
33 | CN1CCN(C(=O)COc2ccc(-c3nc4ccccc4s3)cc2)CC1 | inconclusive: 35.5 µM [inhibitor, single point] | –
34 | Cc1c(N=Nc2c(O)n(Cc3ccccc3)c(=O)[nH]c2=O)c(=O)n(-c2ccccc2)n1C | active: 7.08 µM | –
35 | CN1C(=O)C(Cc2c[nH]c3ccccc23)C(=O)N(C)C1=O | inconclusive: 28.2 µM [inhibitor, single point] | –
36 | COc1ccc(O)c(C(C)(C)C)c1 | – | inactive: 4.05%
37 | NC(Cc1nc2ccccc2[nH]1)c1ccc(Cl)cc1 (stereo not given) | inconclusive: 35.5 µM [inhibitor, single point] | –
38 | CC1CC(OP(O)(=S)c2ccc(N(C)C)cc2NC(=O)c2cccs2)CC(C)(C)C1 (stereo not given) | inconclusive: 17.8 µM [inhibitor, single point] | –
39 | O=C(O)CCn1cc(C=C2C(=O)NC(=S)NC2=O)c(-c2cc3ccccc3oc2=O)n1 | – | inactive: -3.56%
40 | CCCn1c(C)cc(C=O)c1C | – | inactive: -1.44%
41 | CC(=Nc1c(C)n(C)n(-c2ccccc2)c1=O)c1c(O)n(Cc2ccccc2)c(=O)[nH]c1=O | – | inactive: -8.32%
42 | COc1ccc(/C=C/C2=CCN(C)CC2)cc1 | – | inactive: -5.71%
43 | Cc1ccc2cc3cc(C(=O)N4CCC5(CC4)OCCO5)oc3nc2c1 | inconclusive: 15.8 µM [inhibitor, partial curve] | –
44 | Cn1c2ccccc2c2c(C(=O)N3CCC4(CC3)OCCO4)cn(C3CCCC3)c(=O)c21 | inconclusive: 31.6 µM [inhibitor, partial curve] | –
45 | O=C1NC(=O)N(c2ccccc2F)C(=O)/C1=C/c1ccc(Oc2ccc([N+](=O)[O-])cn2)cc1 | inconclusive: 31.6 µM [inhibitor, single point] | –
46 | O=C(O)CCn1cc(C=C2C(=O)NC(=S)NC2=O)c(-c2ccccc2)n1 | – | inactive: 1.32%
47 | COC(=O)C1C=C2c3cccc4[nH]cc(c34)CC2N(C)C1 (stereo not given) | inconclusive: 31.6 µM [inhibitor, partial curve] | –
48 | CCCCC(CC)CNCC(O)c1ccccc1 (stereo not given) | inconclusive: 35.5 µM [inhibitor, single point] | –

Row | SMILES | Potency | activity change, negative = inhibition
49 | Cc1cccc(N2C(=O)CC(=O)NC2=O)c1 | – | inactive: 5.55%
50 | CCC1CN2CCc3cc(OC)c(OC)cc3C2CC1CC1NCCc2cc(OC)c(OC)cc21 (stereo not given) | inconclusive: 28.2 µM [inhibitor, partial curve] | –
51 | CC1(C)Cc2c(sc3c2C(=O)NC(c2cccnc2)N3)CO1 (stereo not given) | inconclusive: 31.6 µM [inhibitor, partial curve] | –
52 | CN(C)c1ccc(P(=S)(N(C)C)N(C)C)cc1 | inconclusive: 28.2 µM [inhibitor, single point] | –
53 | C=CCn1c(O)c(/C=N/NC(=O)CCCC)c(=O)[nH]c1=S | inconclusive: 39.8 µM [inhibitor, single point] | –
54 | Nc1c(C(=O)NC2CCCC2)c2nc3ccccc3nc2n1CC1CCCO1 (stereo not given) | inconclusive: 35.5 µM [inhibitor, single point] | –
55 | CC[C@@H](CO)NC(=O)[C@H]1C=C2c3cccc4c3c(cn4C)C[C@H]2N(C)C1 | inconclusive: 35.5 µM [inhibitor, partial curve] and inconclusive: 28.2 µM [inhibitor, partial curve] | –
56 | O=C(Cc1ccccc1)N1CCN(CC2CC=CCC2)CC1 (stereo not given) | inconclusive: 39.8 µM [inhibitor, single point] | –
57 | O=C(O)CCC(=O)N1N=C(c2c(-c3ccccc3)c3cc(Cl)ccc3[nH]c2=O)CC1c1ccco1 (stereo not given) | inconclusive: 28.2 µM [inhibitor, partial curve] | –
58 | CSc1ncc(/C=C2/C(=O)NC(=O)N(c3ccc(C(C)C)cc3)C2=O)cn1 | inconclusive: 7.08 µM [inhibitor, single point] | –
59 | Nc1nc2[nH]c(=O)cnc2c(=O)[nH]1 | inconclusive: 14.1 µM [inhibitor, partial curve] | –
60 | Cc1ccccc1-n1c(O)c(/C=N/Nc2nc3c(c(=O)n(C)c(=O)n3C)n2C)c(=O)[nH]c1=S | inconclusive: 25.1 µM [inhibitor, single point] | –
61 | Cn1cccc1CN1CCN(C(=O)COc2ccccc2)CC1 | – | inactive: -13.2%
62 | CC1CCN(CC(=O)c2ccc3c(c2)OCCO3)CC1 | inconclusive: 35.5 µM [inhibitor, single point] | –
63 | O=C1NC(=O)N(c2ccccc2F)C(=O)/C1=C/c1ccc(Sc2nc3ccccc3[nH]2)o1 | inconclusive: 35.5 µM [inhibitor, single point] | –
64 | Cc1ccc(-c2cc(-c3ccc(C)cc3)[n+](C)o2)cc1 | inconclusive: 35.5 µM [inhibitor, single point] | –
65 | CC(=O)NC1N=C(C)N(c2ccccc2)C1=O (stereo not given) | inconclusive: 2.24 µM [inhibitor, full curve] | –
66 | COC(=O)[C@@]1(C#N)[C@@H]2C=CC(C(C)=O)=CN2[C@@H](C(N)=O)[C@@H]1c1ccc(F)cc1 | inconclusive: 28.2 µM [inhibitor, single point] | –
67 | COc1ccccc1N1C(=O)NC(=O)C2(Cc3cc(C)ccc3N(C)C2)C1=O (stereo not given) | – | inactive: 3.02%
68 | NCCc1ccc(O)cc1 | inconclusive: 35.5 µM [inhibitor, single point] | –
69 | COCCCn1c(N)c(C(=O)OC(C)COC)c2nc3ccccc3nc21 (stereo not given) | inconclusive: 31.6 µM [inhibitor, partial curve] | –
70 | COc1cccc(/C=C2\N=C(c3cncc(Br)c3)OC2=O)c1 | inconclusive: 39.8 µM [inhibitor, single point] | –
